In article PMC4336329 (PLoS ONE, 2015):
Screen size: about 310,000 compounds; about 2,200 (0.71%) showed an effect of 50% or more. Effects have a minus sign here. The list shows a part of the results.

The molecules below were run against human ether-à-go-go-related gene (hERG) potassium channel (human, UniProt Q12809) (assay: primary screen, population patch clamp on CHO cells stably expressing hERG).
Chain of human ether-à-go-go-related gene (hERG) potassium channel (Q12809 whole entry, looked up): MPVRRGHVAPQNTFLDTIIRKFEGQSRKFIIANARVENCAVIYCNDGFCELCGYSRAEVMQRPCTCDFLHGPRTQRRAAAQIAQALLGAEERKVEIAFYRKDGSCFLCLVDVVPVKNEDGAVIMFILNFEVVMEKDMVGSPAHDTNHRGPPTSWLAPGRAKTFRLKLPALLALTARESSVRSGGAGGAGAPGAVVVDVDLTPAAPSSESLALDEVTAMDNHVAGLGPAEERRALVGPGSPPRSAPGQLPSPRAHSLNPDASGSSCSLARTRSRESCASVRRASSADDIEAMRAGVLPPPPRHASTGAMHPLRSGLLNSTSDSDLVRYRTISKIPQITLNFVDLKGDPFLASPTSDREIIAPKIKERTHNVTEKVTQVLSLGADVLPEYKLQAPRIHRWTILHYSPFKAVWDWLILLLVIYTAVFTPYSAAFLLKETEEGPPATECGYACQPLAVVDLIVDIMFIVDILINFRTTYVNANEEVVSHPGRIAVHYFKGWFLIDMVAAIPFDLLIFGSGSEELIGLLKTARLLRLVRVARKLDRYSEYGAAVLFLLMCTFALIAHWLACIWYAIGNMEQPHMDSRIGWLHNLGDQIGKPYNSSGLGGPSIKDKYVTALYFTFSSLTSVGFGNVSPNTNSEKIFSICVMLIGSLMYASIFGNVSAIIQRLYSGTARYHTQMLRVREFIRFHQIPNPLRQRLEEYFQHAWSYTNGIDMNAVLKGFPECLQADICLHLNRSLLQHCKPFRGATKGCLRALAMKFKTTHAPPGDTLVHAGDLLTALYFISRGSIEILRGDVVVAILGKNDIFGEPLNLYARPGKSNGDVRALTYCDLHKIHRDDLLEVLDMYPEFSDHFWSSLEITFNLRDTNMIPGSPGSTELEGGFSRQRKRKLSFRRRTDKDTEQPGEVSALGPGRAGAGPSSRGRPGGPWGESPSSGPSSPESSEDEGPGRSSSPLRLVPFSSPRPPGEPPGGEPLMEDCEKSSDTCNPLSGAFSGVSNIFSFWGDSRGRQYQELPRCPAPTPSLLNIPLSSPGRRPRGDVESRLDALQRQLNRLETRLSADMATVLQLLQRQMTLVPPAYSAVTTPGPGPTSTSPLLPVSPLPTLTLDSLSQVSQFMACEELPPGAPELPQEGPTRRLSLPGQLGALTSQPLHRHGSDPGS

SMILES	hERG current change (%, negative = inhibition) at 1uM
CCOC(=O)C1CCN(C2=C(NS(=O)(=O)c3ccc(Br)cc3)C(=O)c3ccccc3C2=O)CC1	10.4%
CC1CCCCC1NC(=O)CSc1nnnn1-c1ccccc1 (stereo not shown)	3.16%
CCc1ccccc1NC(=O)c1ccc(F)c(S(=O)(=O)N2CCC(C(N)=O)CC2)c1	8.64%
Cc1ccc(S(=O)(=O)CCN2CCN(c3ccccn3)CC2)cc1	8.75%
O=C(CN1CCC(C(=O)c2ccc3c(c2)OCCO3)CC1)Nc1ccccc1C(F)(F)F	12%
CN(C)C(=O)CSc1nnc(-c2cccs2)n1-c1ccccc1	10%
CCn1c(SCc2cc(=O)[nH]c3ccccc23)nnc1C1CC1	8.69%
CC1(C(=O)CSc2nc3ccccc3[nH]2)CCC(=O)O1 (stereo not shown)	-38.6%
COc1ccc(CN2CN(S(=O)(=O)c3ccccc3)c3nc4ccccc4nc32)cc1	5.6%
C[C@H](NC(=O)Nc1cccc(Br)c1)C(=O)O	3.4%
CN(C)C(=O)c1ccc(-n2cccn2)nc1	4.76%
CCOC(=O)c1c(C)[nH]c(C(=O)N2CCN(CC)CC2)c1C	18.9%
Cl.N=c1sccn1CC(=O)Nc1cc(S(=O)(=O)N2CCCC2)ccc1Cl	-1.64%
CC(C)(C)CN1CCC(Oc2cccc(C(=O)N3CCNC(=O)C3(C)C)c2)CC1	2.39%
O=C1CC(N2CCC(c3nc4ccccc4s3)CC2)C(=O)N1Cc1ccccc1 (stereo not shown)	-25.3%
CCOC(=O)c1c(C)[nH]c(C(=O)COC(=O)CNS(=O)(=O)c2ccc(C)cc2)c1C	11.6%
CNC(=S)N/N=C/c1ccc(N(C)C)cc1	-2.23%
COc1cccc(C2CC(c3cccc(Br)c3)n3nc(N)nc3N2)c1 (stereo not shown)	6.58%
CCOCCCNCc1ccc(OCCC(C)C)c(OC)c1.O=C(O)C(=O)O	2.13%
CC(=O)Nc1ccc(C(=O)Nc2ccc(S(=O)(=O)N3CCOCC3)cc2)cc1	17.1%
CCOC(=O)CSc1nnc(CSc2nc3sc4c(c3c(=O)[nH]2)CCC4)n1-c1ccccc1	7.38%
Cl.OC(COc1ccc(OCC(O)CN2CCCCCC2)cc1)CN1CCCCCC1 (stereo not shown)	11.6%

SMILES	hERG current change (%, negative = inhibition) at 1uM
CC1=C(C(=O)OC2CCCC2)C(c2coc3ccc(C)cc3c2=O)C2=C(CCCC2=O)N1 (stereo not shown)	14.5%
COc1ccc(C(=S)N2CCN(c3ccccc3C)CC2)cc1	8.32%
CCn1cc(/C=C(\NC(=O)c2cc(OC)c(OC)c(OC)c2)C(=O)N2CCN(C)CC2)c2ccccc21	10.5%
Br.CCN(CC)CCn1c(=N)n(CCOc2ccccc2)c2ccccc21	-8.24%
Cl.O=C(CCN(CCO)Cc1ccccc1)Nc1ccc(Br)cc1	10.3%
O=C(Nc1ccc(Cl)cc1)c1cccc(OC(=S)N2CCOCC2)c1	4.22%
CCC(C)NC(=O)Cn1c(=O)n(CCCC(=O)NCc2ccccc2Cl)c(=O)c2ccccc21 (stereo not shown)	13.4%
O=[N+]([O-])c1ccc(N2CCOCC2)cn1	13.5%
Cc1ccc(C(=O)NNC(=O)CSc2nnc(C3CC3)n2C)cc1	5.02%
Cc1ccccc1CC(=O)NCCN1CCOCC1	20.5%
COc1ccc2cc(-c3csc(-c4cccnc4)n3)ccc2c1	14.5%
O=C(N/N=C/c1ccccn1)c1cc(-c2ccc(Cl)cc2)nc2ccccc12	16%
O=c1c2ccccc2[nH]c(=S)n1CCCN1CCN(c2ccccc2F)CC1	16.5%
Cc1cccc2nc(-c3ccco3)oc(=O)c12	22%
CN1[C@@H]2CC[C@H]1CC(OC(=O)C1C=Nc3ccccc31)C2.Cl (stereo partly shown)	-23.5%
CCc1ccccc1NC(=O)CNC(=O)CCNC(=O)Nc1ccccc1	7.01%
CCC1=C(OC(=O)N(CC)CC)N2C(=O)OC(=NCCc3c[nH]c4ccccc34)[C@]2(C)[C@H]2C1=CC[C@H]1C(=O)N(CC(=O)OC)C(=O)[C@H]12	9.15%
CCc1nc(N2CCN(C(=O)c3ccccc3)CC2)c2c3c(sc2n1)CCCC3	14.1%
O=C(Nc1ccncc1)c1ccccc1[N+](=O)[O-]	8.77%
CCOC(=O)c1cc2sccc2n1CC(=O)N1CCc2ccccc21	12.8%
O=C(Nc1cccc(S(=O)(=O)N2CCCCC2)c1)C1CC(=O)N(Cc2ccccc2)C1 (stereo not shown)	-1.05%
O=C(c1cc(-c2ccc(Br)cc2)on1)N1CCc2ccccc2C1	13.6%

SMILES	hERG current change (%, negative = inhibition) at 1uM
Cc1ccnc(NC(=O)c2ccc(NS(=O)(=O)/C=C/c3ccccc3)cc2)c1	5.37%
CC(=O)Nc1ccc(NC(=O)C(C)OC(=O)CCCOc2ccc(Cl)c(C)c2)cc1 (stereo not shown)	14.1%
Fc1cnc(N2CCOCC2)nc1N1CCc2ccccc21	14.1%
CCCOc1ccc(C(=O)N2CCCc3ccccc32)cc1	2.91%
COC(=O)c1cc(OC)c(OC)cc1NC(=O)c1ccc(C)cc1	-0.757%
Cc1cc(C)c2nc(-c3ccccn3)cc(C(=O)Nc3ccc(S(=O)(=O)Nc4cc(C)on4)cc3)c2c1	9.7%
Cc1ccc(S(=O)(=O)NNC(=O)c2cccc(O)c2)cc1	6.1%
CCN(CC)C(=S)Oc1ccc(Cl)cc1Cl	11.7%
CN(C)/C=N/c1c(C#N)cnn1-c1nc2ccccc2s1	7.52%
Cc1cc(S(=O)(=O)N2CCOCC2)ccc1OCC(=O)NCc1ccco1	-0.782%
Cc1cc(C)c(NC(=O)CN2C(=O)NC(CCc3ccccc3)C2=O)c(C)c1 (stereo not shown)	7.09%
CCn1cc(S(=O)(=O)Nc2ncccn2)cn1	5.11%
CC(C)(C)OC(=O)N1CCN(C(=O)c2nc[nH]c2C(=O)N2CCN(c3ccccc3)CC2)CC1	13.5%
Nc1cccc(NP(=O)(c2ccccc2)c2ccccc2)c1	9.22%
COC(=O)c1cc(S(=O)(=O)N2CCN(c3ccccc3)CC2)c[nH]1	14.4%
CCOc1ccc(NC(=O)CSc2ccc(-c3ccco3)nn2)cc1	13%
O=C(c1cccc(F)c1)N1CCCN(C(=O)c2cccc(F)c2)CC1	7.61%
Nc1cc(OC(=O)c2ccc(F)cc2)nn1S(=O)(=O)c1ccccc1	16.5%
Cn1cc(C(=O)c2ccccc2)c2ccccc21	9.75%
COc1ccc(C=O)cc1COc1ccc(F)cc1F	6.44%
CSc1nnc(C2CCN(CC(=O)Nc3ccccc3N3CCOCC3)CC2)n1C(C)C	6.42%
Cc1ccc(NC(=O)C2CCN(C(=O)NCc3ccccc3)CC2)cc1C	16.2%

SMILES	hERG current change (%, negative = inhibition) at 1uM
Cc1sc(NC(=O)C2CCCCC2C(=O)O)c(C(N)=O)c1C (stereo not shown)	5.48%
CCSc1ncnc2sc(C)c(C)c12	6.19%
COC(=O)C1CCN(C(=O)/C=C/c2ccc3c(c2)OCO3)CC1	12.1%
CC1CCCCC1NC(=O)c1ccc(S(=O)(=O)NCc2ccco2)cc1 (stereo not shown)	13.2%
O=C(NCc1ccc2c(c1)OCO2)C(=O)NCC1OCCCN1S(=O)(=O)c1cc(F)ccc1F (stereo not shown)	10.5%
CC(O)C(NS(=O)(=O)c1ccc(Cl)cc1)C(=O)OCc1cc([N+](=O)[O-])cc2c1OCOC2 (stereo not shown)	2.53%
CCC[N+](C)(C)C(C)C(OC(C)=O)c1ccccc1.[I-] (stereo not shown)	7.18%
Cc1cc(C)c2c(=O)[nH]c(=O)n(Cc3ccccc3)c2n1	-6.19%
COC(=O)Nc1ccc(S(=O)(=O)N2CCCC(C(=O)Nc3cccc4c3OCCO4)C2)cc1 (stereo not shown)	14%
CCc1nnc(NC(=O)CN2CCN(Cc3ccc(F)cc3)CC2)s1	0.777%
Nc1nc(SCc2ccc(Cl)c(Cl)c2)n[nH]1	11.6%
Cc1c(S(=O)(=O)N2CCN(c3cccc(C(F)(F)F)c3)CC2)c(=O)n(C)c(=O)n1C	12.9%
O=C(NNC(=O)C1CCN(C(=O)Nc2ccccc2)CC1)c1ccc(F)cc1	11.4%
NC(=O)c1sc(=S)n(-c2ccc(Br)cc2)c1N	-8.79%
CCOC(=O)n1c(=O)n(Cc2cccc(F)c2)c2ccccc21	6.33%
CCOC(=O)c1nonc1NC(C)=O	15.9%
NC(=O)C1CCN(CCCNC2CC(=O)N(Cc3ccc(N4CCCC4=O)cc3)C2=O)CC1 (stereo not shown)	5.72%
O=C(CSc1nc2ccccc2o1)NCC(=O)c1ccccc1	1.93%
O=C(CNC(=O)c1ccc2c(c1)OCCO2)N/N=C/c1ccc([N+](=O)[O-])cc1	17.4%
CCOC(=O)Cn1c(=NC(=O)c2ccc([N+](=O)[O-])s2)sc2ccccc21	-2.02%
COc1ccc(S(=O)(=O)N2CCN(c3nc(-c4cccnc4)nc4ccccc34)CC2)cc1	-1.23%
CCCCC(OC(=O)c1ccco1)C(=O)NCc1ccc(C)cc1 (stereo not shown)	15.5%
